The structures appear in SMILES notation. The whole screen tested about 310,000 compounds, of which about 2,200 (0.71%) showed an effect of 50% or more. Effects have a minus sign here. Some of the results follow.

The target of this test is human ether-à-go-go-related gene (hERG) potassium channel (human, UniProt Q12809). Kind of test: primary screen, population patch clamp on CHO cells stably expressing hERG.
Sequence of human ether-à-go-go-related gene (hERG) potassium channel (Q12809 whole entry, looked up): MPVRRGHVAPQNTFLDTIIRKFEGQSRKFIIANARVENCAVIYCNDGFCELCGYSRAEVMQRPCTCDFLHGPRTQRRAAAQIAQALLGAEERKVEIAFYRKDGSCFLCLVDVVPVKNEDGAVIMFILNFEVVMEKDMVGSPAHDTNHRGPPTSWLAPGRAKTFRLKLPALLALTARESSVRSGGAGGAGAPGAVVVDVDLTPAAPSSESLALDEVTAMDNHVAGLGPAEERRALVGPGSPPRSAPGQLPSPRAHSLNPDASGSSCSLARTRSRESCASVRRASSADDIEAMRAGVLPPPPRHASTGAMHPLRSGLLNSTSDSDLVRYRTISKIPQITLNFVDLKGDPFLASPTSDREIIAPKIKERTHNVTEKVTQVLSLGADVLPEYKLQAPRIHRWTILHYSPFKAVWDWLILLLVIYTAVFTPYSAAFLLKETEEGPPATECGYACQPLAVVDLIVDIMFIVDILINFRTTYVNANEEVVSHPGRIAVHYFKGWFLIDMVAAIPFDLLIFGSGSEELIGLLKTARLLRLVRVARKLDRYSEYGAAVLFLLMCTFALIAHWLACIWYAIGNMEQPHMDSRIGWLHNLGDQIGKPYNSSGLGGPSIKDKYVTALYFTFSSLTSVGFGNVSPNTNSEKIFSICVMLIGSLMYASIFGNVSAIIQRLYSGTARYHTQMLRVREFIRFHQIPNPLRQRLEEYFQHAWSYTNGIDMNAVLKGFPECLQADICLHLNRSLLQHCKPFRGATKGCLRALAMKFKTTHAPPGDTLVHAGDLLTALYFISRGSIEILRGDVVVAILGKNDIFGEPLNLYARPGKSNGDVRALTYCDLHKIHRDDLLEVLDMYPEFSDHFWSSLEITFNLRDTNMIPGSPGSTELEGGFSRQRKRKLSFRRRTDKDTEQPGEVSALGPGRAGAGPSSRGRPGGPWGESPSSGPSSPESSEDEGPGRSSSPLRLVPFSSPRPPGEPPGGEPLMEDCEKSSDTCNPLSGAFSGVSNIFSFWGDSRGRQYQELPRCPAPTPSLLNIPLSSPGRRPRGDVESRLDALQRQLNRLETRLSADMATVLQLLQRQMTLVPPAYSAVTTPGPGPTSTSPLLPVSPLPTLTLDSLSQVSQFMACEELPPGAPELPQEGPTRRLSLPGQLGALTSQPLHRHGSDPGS
Regarding `Cc1cnc(C(=O)Nc2nc(-c3ccccc3)cs2)cn1`, the “hERG current change (%, negative = inhibition) at 1uM” value is listed as -3.94%.
The value for `CC(=N)C1=C(O)CC(c2ccccc2)CC1=O` (stereo not shown) was 16.6%; that for `O=C(COC(=O)c1c(Cl)ccc(Cl)c1Cl)NC1CCS(=O)(=O)C1` (stereo not shown) was 9.59%; that for `COC(=O)CSC1=C(C#N)C(c2cccc(F)c2)CC(=O)N1` (stereo not shown) was 8.39%.
The value for `CCOC(=O)C1CCCN(CC(O)COC(c2ccccc2)c2ccccc2)C1` (stereo not shown) was -78.8%; that for `O=C(COc1ccc(S(=O)(=O)N2CCCC2)cc1Cl)NCc1cccnc1` was -16.4%; that for `Cc1ccc(NC(=O)COc2ccc(/C=C3/SC(=Nc4ccccc4)N(Cc4cccnc4)C3=O)cc2)cc1` was 9.38%.
Under `Cc1nccn1CCCNC(=O)CC1C(=O)NCCN1Cc1ccc(Cl)c(F)c1` (stereo not shown) stands 11.3%; under `Cc1ccc(S(=O)(=O)n2ccc(=O)[nH]2)cc1`, 5.78%; under `Cc1ccc(-c2cnc(-c3ccccc3C(=O)O)o2)cc1`, 14.1%.
For `CCN(CC)CC(O)Cn1c(C)c(-c2ccccc2)c2cc([N+](=O)[O-])ccc21.Cl` (stereo not shown), the “hERG current change (%, negative = inhibition) at 1uM” value is on record as -18.5%.
As to `Cc1cccc(C)c1NC(=O)COC(=O)c1nonc1N`, the “hERG current change (%, negative = inhibition) at 1uM” value worked out at 9.37%.
Under `COC(=O)c1c(NC(=O)CSc2nnnn2C)sc(C)c1C` stands -2.2%; under `Cc1[nH]c2ccccc2c1C(=O)C(=O)NCCc1ccc(S(N)(=O)=O)cc1`, 3.85%.
Under `COCCCC1CCN(C(=O)c2cc(COc3cc(C)ccc3C)on2)CC1` stands 9.02%.
Under `COc1cc(-c2nc(-c3cccc(C)c3)no2)cc(OC)c1OC` stands 0.586%; under `O=C(O)CC(C(=O)OC1CCCCC1)N1CCOCC1` (stereo not shown), 16.5%; under `Fc1ccc(Oc2nc(-c3ccccc3)nnc2C(F)(F)F)cc1`, 6.08%.
For `CC1=C(C(=O)OC(C)(C)C)C(c2ccc3ccccc3c2)NC(=O)N1C` (stereo not shown), the “hERG current change (%, negative = inhibition) at 1uM” value came to 10%.
`COc1ccc(NC(=O)CN(C)C(=O)CCNS(=O)(=O)c2ccc(Br)cc2)cc1`: the “hERG current change (%, negative = inhibition) at 1uM” value is listed as 8.44%.
In the case of `CC(C)(C)c1[nH]nc2c1C(C1C=CCCC1)C(C#N)=C(N)O2` (stereo not shown), the “hERG current change (%, negative = inhibition) at 1uM” value was determined as 0.944%.
Take `NC(=O)c1cccnc1Oc1ccccc1`: the “hERG current change (%, negative = inhibition) at 1uM” value came out at 10.3%.
The value for `Cc1ccc(C(=O)N2CCN(C(=O)c3ccc(C)cc3)C2)cc1` was 0.274%; that for `CN(C)CCCN1C(=O)C(O)=C(C(=O)c2cccs2)C1c1cccc([N+](=O)[O-])c1` (stereo not shown) was 9.28%; that for `C=CCNC(=S)N/N=C/c1cn(-c2ccccc2)nc1-c1ccc(OC)cc1` was 14.4%.
The value for `Cc1ccc(-c2n[nH]c(=S)c3ccccc23)cc1S(=O)(=O)NCC1CCCO1` (stereo not shown) was 13%; that for `Cc1nn2c(c1-c1ccccc1)N=C(c1ccco1)CC2c1ccccc1` (stereo not shown) was 11.2%.
The value for `CCC1S/C(=N/N=C/c2ccco2)N(Cc2ccccc2)C1=O` (stereo not shown) was 8.47%.
`c1cncc(CNc2nc(-c3cccnc3)nc3ccccc23)c1`: the “hERG current change (%, negative = inhibition) at 1uM” value is on record as -1.23%.
Under `Cc1ccc(NC(=O)Cc2nnc(SCC(=O)c3ccc(Br)cc3)n2C)cc1` stands 7.32%.
For the compound `Br.Cc1ccc(Nc2nc(-c3ccc(S(=O)(=O)N4CCCC4)cc3)cs2)cc1C`, the “hERG current change (%, negative = inhibition) at 1uM” value is recorded as 7.01%.
Under `COc1cc(/C=C2\SC(=S)N(NC(=O)c3ccccc3O)C2=O)ccc1O` stands 15.7%; under `CCC(C)(C#CCN1CCCCC1)OC(C)=O` (stereo not shown), 9.81%; under `Cn1ccnc1C(=O)c1cc(=O)c2ccccc2o1`, 12.2%.
The value for `CCCC(=O)Nc1cc(C(=O)O)ccc1S(=O)(=O)c1ccc(Cl)cc1` was 7.61%; that for `COCCn1c(SCc2ccc(C(=O)OC)o2)nc2ccccc2c1=O` was 1.26%.
The value for `O=C(COC(=O)c1ccc(Cl)c(S(=O)(=O)N2CCCC2)c1)NC1CCCCC1` was 8.02%; that for `Cc1ccc(CNC(=O)CN2C(=O)NC(C)(c3ccc(Cl)cc3)C2=O)cc1` (stereo not shown) was 9.96%.
With `CCCC(C)c1nnc(NC(=O)C2CCCO2)s1` (stereo not shown), the “hERG current change (%, negative = inhibition) at 1uM” value was 8.36%.
Under `Cc1nc2ccc(S(=O)(=O)Nc3cccc(-c4nc5cccnc5s4)c3)cc2s1` stands 15%.
As for `Cc1ccc(-n2ncc(Cl)c2C(=O)NCc2ccccc2)cc1`, the “hERG current change (%, negative = inhibition) at 1uM” value is 13.6%.
Under `COc1cc(/C=C/c2ccc3cccc(O)c3n2)c(Br)cc1O` stands 16.3%.
Under `CC1C/C(=C\c2cccnc2)C(=O)/C(=C/c2cccnc2)C1` (stereo not shown) stands -28.3%.
The value for `CCCCN(CCCC)CCNC(=O)CN1C(=O)CSc2ccc(S(=O)(=O)N3CCCCC3)cc21` was -51.7%.
Consider `COc1cc(/C=C2\SC(=S)N(CC(=O)O)C2=O)ccc1OS(=O)(=O)c1ccc(C)cc1`, for which the “hERG current change (%, negative = inhibition) at 1uM” value stood at 18.1%.
Under `O=C(Nc1ccccc1)n1ccc(-c2ccc(-n3ccnc3)cc2)n1` stands 15.5%; under `CCOC(=O)/C=C/C(=O)OCC(=O)Nc1ccc(OC)c(Cl)c1`, 7.98%; under `CCOC(=O)c1c(NC(=O)Nc2ccccc2)sc(C)c1C`, 5.5%.
Under `NC(=O)c1cc(S(=O)(=O)N2CCN(c3cccc(Cl)c3)CC2)cs1` stands 18.9%; under `CCCN(CCC)Cc1c(C(=O)OCC)nnn1-c1nonc1N`, 9.71%.
Under `CCOC(=O)Nc1nc(-c2ccc(Cl)cc2Cl)cs1` stands 15.8%; under `S=C(NCC1COc2ccccc2O1)Nc1ccccc1` (stereo not shown), 5.07%.
For the compound `COCCn1c(SCC(=O)Nc2ccc(F)cc2)nc2c([nH]c3ccccc32)c1=O`, the “hERG current change (%, negative = inhibition) at 1uM” value is 2.51%.
Under `COc1ccccc1NC(=O)C1CCN(S(=O)(=O)c2cccs2)CC1` stands 6.49%; under `CCN(C(=O)COC(=O)c1oc2ccc(OC)cc2c1C)C1CCCCC1`, 6.9%; under `COc1cc([C@H]2Oc3c(OC)cc(CCCO[C@@H]4O[C@H](CO)[C@@H](O)[C@H](O)[C@H]4O)cc3[C@@H]2CO)ccc1O`, 3.87%.
Under `CN1CCN(Cc2nc3c([nH]2)c(=O)[nH]c(=O)n3C)CC1` stands 3.65%; under `Cc1cc(-c2ccccc2)nc(N/N=C/c2ccco2)n1`, 7.11%.
Under `O=C(N/N=C/c1cccs1)c1ccc2c(c1)OCO2` stands -1.52%; under `Oc1ccc2ccccc2c1C=Nc1ccc(Cl)cn1`, 4.56%.
`Cc1ccc(-c2nnc(Cc3ccc(Cl)cc3)o2)cc1`: the “hERG current change (%, negative = inhibition) at 1uM” value worked out at 10.6%.
Under `CCN(CC(=O)Nc1ccc(Cl)c(S(=O)(=O)N(C)C)c1)Cc1nc2ccccc2c(=O)[nH]1` stands 5.07%; under `Cc1ccc(-c2nc3c(c(SCC(=O)N4CCOCC4)n2)Cc2c(CO)cnc(C)c2O3)cc1`, 14.2%.
The value for `COc1cccc(/C=C/c2n[nH]c(=O)c(C#N)c2C)c1` was 9.7%; that for `CCOC(=O)c1c(-c2ccc(C)cc2)csc1NC(=O)C1CC=CCC1C(=O)O` (stereo not shown) was 3.01%.
Under `CC(C)OC(=O)c1cc2c(ccn2-c2ccc(F)cc2)n1CC(=O)N1CCN(C(=O)c2ccco2)CC1` stands -5.88%; under `CCOC(=O)c1ccc2c(c1)nc(-c1ccccn1)n2CC`, 11%; under `N/C(=N\OC(=O)c1ccccc1Cl)c1cccc([N+](=O)[O-])c1`, 10.9%.
As to `O=C(NN1C(=O)c2ccccc2NC1c1ccco1)c1ccccc1` (stereo not shown), the “hERG current change (%, negative = inhibition) at 1uM” value is 4.38%.
Under `CCOC(=O)CC1C(=O)NCCN1S(=O)(=O)c1ccc(OC)cc1` (stereo not shown) stands 10.7%.
The value for `O=C(Nc1cccnc1)c1cc(-c2ccccc2)on1` was 11.2%.
The value for `COc1ccc(-c2cccc(C3CC=CC4C3C(=O)N(Cc3ccccc3)C4c3ccc(C(F)(F)F)cc3)c2)cc1` (stereo not shown) was 9.28%; that for `FC(F)(F)c1nc2ccccc2nc1N/N=C/c1ccc(Cl)cc1` was 4.54%.
Take `N#C/C(=C\c1cn(-c2ccccc2)nc1-c1cccnc1)c1nnc2n1CCCCC2`: the “hERG current change (%, negative = inhibition) at 1uM” value is given as -20.4%.
Under `O=C(O)c1ccc(/C=N/NC(=O)c2ccc(F)cc2)cc1` stands 14.9%; under `CCCc1cc(C(=O)Nc2cc(OC)ccc2OC)cs1`, 13.4%.
For the compound `O=C(CCCOc1ccc(Cl)cc1Cl)N/N=C\C1CCCCC1`, the “hERG current change (%, negative = inhibition) at 1uM” value is 6.47%.
Under `CS(=O)(=O)c1ccc(-c2nnn(CC(N)=O)n2)cc1` stands 10.6%; under `Cc1nc(NCC2CCCO2)c2oc3ccccc3c2n1` (stereo not shown), -7.63%; under `Cc1ccc(C(=O)Nc2ccc3c(c2)OCCO3)o1`, 2.34%.
In the case of `CSCCC(NC(=O)c1ccc([N+](=O)[O-])cc1Cl)C(=O)OC(C)C(=O)NCc1ccco1` (stereo not shown), the “hERG current change (%, negative = inhibition) at 1uM” value was -10.7%.
Under `COc1ccc(-c2c(C)n([O-])c(C)c(C)[n+]2=O)cc1` stands -0.35%; under `CCCCn1c(N)c(N(Cc2ccccc2OC)C(=O)c2ccc([N+](=O)[O-])s2)c(=O)[nH]c1=O`, 7.38%.
Under `Nc1nnc(Cc2c[nH]c3ccccc23)s1` stands 1.91%.
As to `O=c1c(C=NCc2cccs2)c(O)n(C2CCCCC2)c(=O)n1C1CCCCC1`, the “hERG current change (%, negative = inhibition) at 1uM” value was 18.2%.
On to `CCCn1c(NC(=O)c2ccc(Cl)c(S(=O)(=O)N3CCCC3)c2)nc2ccccc21`, for which the “hERG current change (%, negative = inhibition) at 1uM” value was determined as 8.81%.
`Cc1ccccc1NC(=O)COC(=O)CCSc1ccccc1`: the “hERG current change (%, negative = inhibition) at 1uM” value is reported as 19.2%.
For `O=S1(=O)CCN(Cc2ccccc2Cl)CC1`, the “hERG current change (%, negative = inhibition) at 1uM” value is 6.18%.

The record behind these values is paper PMC4336329 (PLoS ONE, 2015).
